# Experimental data as given in article PMC4336329 (PLoS ONE, 2015).
# About 2,200 (0.71%) of roughly 310,000 compounds showed an effect of 50% or more. The effect is printed as a negative number. The list shows a part of the results.
# Biological target: human ether-à-go-go-related gene (hERG) potassium channel (human, UniProt Q12809)
# Experiment: primary screen, population patch clamp on CHO cells stably expressing hERG
# Sequence of human ether-à-go-go-related gene (hERG) potassium channel (Q12809 whole entry, looked up): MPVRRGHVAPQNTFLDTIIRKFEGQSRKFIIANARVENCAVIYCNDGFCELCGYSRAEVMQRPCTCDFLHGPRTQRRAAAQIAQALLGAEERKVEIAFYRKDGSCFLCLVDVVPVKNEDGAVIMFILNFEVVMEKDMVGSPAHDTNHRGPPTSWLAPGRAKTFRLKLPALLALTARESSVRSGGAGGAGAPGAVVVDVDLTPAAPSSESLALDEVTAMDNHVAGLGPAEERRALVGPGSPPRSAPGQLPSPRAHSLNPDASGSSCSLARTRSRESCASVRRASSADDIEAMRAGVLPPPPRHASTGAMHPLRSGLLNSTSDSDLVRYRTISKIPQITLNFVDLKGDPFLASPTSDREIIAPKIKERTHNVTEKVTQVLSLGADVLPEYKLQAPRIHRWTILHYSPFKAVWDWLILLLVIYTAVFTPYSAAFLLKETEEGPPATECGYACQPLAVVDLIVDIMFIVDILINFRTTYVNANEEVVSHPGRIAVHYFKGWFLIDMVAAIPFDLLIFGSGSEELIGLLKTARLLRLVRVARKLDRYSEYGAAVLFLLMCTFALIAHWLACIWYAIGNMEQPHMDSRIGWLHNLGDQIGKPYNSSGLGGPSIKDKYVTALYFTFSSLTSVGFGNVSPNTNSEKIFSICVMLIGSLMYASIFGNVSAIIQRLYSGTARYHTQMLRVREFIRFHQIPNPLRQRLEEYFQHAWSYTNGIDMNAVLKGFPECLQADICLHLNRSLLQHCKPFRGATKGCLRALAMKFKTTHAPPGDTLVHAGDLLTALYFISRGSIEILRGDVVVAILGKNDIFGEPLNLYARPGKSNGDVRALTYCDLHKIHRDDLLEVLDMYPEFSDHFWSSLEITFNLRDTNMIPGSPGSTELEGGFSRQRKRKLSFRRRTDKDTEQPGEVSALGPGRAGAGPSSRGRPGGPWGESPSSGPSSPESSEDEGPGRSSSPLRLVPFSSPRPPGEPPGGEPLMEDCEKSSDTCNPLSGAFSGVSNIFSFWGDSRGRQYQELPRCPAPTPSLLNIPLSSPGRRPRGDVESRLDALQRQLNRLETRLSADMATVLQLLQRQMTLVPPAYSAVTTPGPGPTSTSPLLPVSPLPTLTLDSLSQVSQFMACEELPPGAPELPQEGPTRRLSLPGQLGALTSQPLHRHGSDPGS
row,Structure (SMILES),"hERG current change (%, negative = inhibition) at 1uM"
1,CCC(=O)c1cn(CC(=O)Nc2cc(C)ccc2C)c2ccccc12,11.3%
2,O=C(CN1CCN(S(=O)(=O)c2ccccc2F)CC1)Nc1ccnn1C1CCCC1,-8.04%
3,COc1ccc(C(=O)CC(c2ccccc2)S(=O)(=O)c2ccc(C)cc2)cc1 (centres unmarked),14.7%
4,CCCCNC(=S)NNC(=O)CCn1cc(C)cn1,12.9%
5,COc1ccc([C@@H]2[C@@H]3C(=O)N(C(C)(C)C)C(=O)[C@@H]3[C@]3(Cc4ccc(Cl)cc4)C(=O)N(c4cccc(Br)c4)C(=O)N23)cc1,10.8%
6,O=C(CSc1nc2ccc([N+](=O)[O-])cc2[nH]1)c1ccc(Cl)cc1,12.6%
7,Cn1c(=O)c2ncn(CC(=O)NCCOc3ccccc3)c2n(C)c1=O,1.94%
8,CN1C(=O)C2(C(C#N)=C(N)N(c3cc(Cl)cc(Cl)c3)C3=C2C(=O)CCC3)c2ccccc21 (centres unmarked),8.38%
9,CN(C)c1ccc(NC(=O)Nc2csc3ccccc23)cc1,16.7%
10,CCC1(c2ccccc2)NC(=O)N(CC(=O)Nc2cc(Cl)ccc2N2CCOCC2)C1=O (centres unmarked),6.48%
11,CC(OC(=O)C1=COCCO1)C(=O)Nc1ccc(Cl)cn1 (centres unmarked),9.7%
12,Cc1cc(Cl)ccc1NC(=O)COC(=O)c1c(C)noc1C,7.79%
13,CCOC(=O)c1cc(-c2csc(-c3cccc(Cl)c3)n2)on1,7.53%
14,CCSc1cc(C)nc2c(-c3ccccc3)c(C)nn12,-0.399%
15,Cc1ccc2ncccc2c1,7.95%
16,O=C(CCN1CCc2ccccc2C1)Nc1ccccc1,4.41%
17,Cc1nc2ccccn2c1C(=O)CSc1cccc(Cl)c1,12.9%
18,O=c1[nH]c(O)c(/C=C2\C=Nc3ccccc32)[nH]1,12.5%
19,O=C(COC(=O)C1CCC1)NCc1ccccc1,9.65%
20,O=C(N/N=C/c1ccc2c(c1)OCO2)c1cccnc1,25.6%

row,Structure (SMILES),"hERG current change (%, negative = inhibition) at 1uM"
1,Cc1cccc(NC(=O)c2ccc(CN3CCc4ccccc4C3)cc2)c1C,8.07%
2,Cc1cccc(C(=O)Nc2cc(C)ccc2NC(=O)COc2ccccc2)c1,10.2%
3,N#Cc1ccc2ccn(CC(=O)NCc3ccco3)c2c1,-1.21%
4,Cc1cc(N2CCN(c3ccc(F)cc3)CC2)nc2cc(O)ccc12,-11.1%
5,COc1ccc(NC(=O)CCN2CCCCCC2)cc1,2.23%
6,S=C(NCC1CCCO1)NC1CCCCC1 (centres unmarked),13.8%
7,Cn1cc(S(=O)(=O)N2CCOCC2)cc1C(=O)NCCc1ccccc1,4.07%
8,O=C(NCCN1C(=O)S/C(=C\c2cccs2)C1=O)[C@H](Cc1ccccc1)N1C(=O)c2ccccc2C1=O,8.46%
9,CCNC(=S)Nc1ccc(Cl)cc1,13.4%
10,Cc1sc2ccc3sccc3c2[n+]1C.[I-],12.6%
11,CC(C)c1ccc(OCC(=O)NC(C)c2ccccc2)cc1 (centres unmarked),4.8%
12,CC(C)(/C=N/O)/[N+]([O-])=C/c1ccco1,9.65%
13,CSc1ccccc1NC(=O)CN1c2ccccc2CC1C (centres unmarked),8.76%
14,O=C(O)CNS(=O)(=O)c1ccc2c(c1)Cc1cc(S(=O)(=O)NCC(=O)O)ccc1-2,8.35%
15,Cc1ccc(C(=O)Nc2ccccc2C(=O)N2CCCCC2C)cc1 (centres unmarked),15.5%
16,O=C(Oc1ccc2ccc(=O)oc2c1)c1ccco1,-53.7%
17,NNC(=O)c1ccc2nc(-c3ccc(Br)cc3)cn2c1,-17%
18,O=C(O)CCCN=CC1=C(O)CNC1=O,-8.82%
19,O=C(Nc1nc2ccccc2s1)C1CC(=O)N(c2ccccc2)C1 (centres unmarked),6.89%
20,CC1(C)C(=O)NCCN1C(=O)c1ccc2nc(Cc3ccccc3F)oc2c1,13.6%

row,Structure (SMILES),"hERG current change (%, negative = inhibition) at 1uM"
1,CCn1c(SCC(=O)NC2CCCC2)nnc1-c1c[nH]c2ccccc12,10.7%
2,Nc1cc(Cl)cc(Cl)c1,9.32%
3,O=C1CC(C(=O)Nc2cccc(Cl)c2)n2ncnc2N1 (centres unmarked),12%
4,COC(=O)c1ccc(CSc2nc3cc(Cl)ccc3o2)cc1,11.9%
5,COc1cc(C(=O)N/N=C/C23CC[C@@H](O)CC2(O)CC[C@@H]2[C@@H]3CCC3(C)C(C4=CC(=O)OC4)CCC23O)ccc1O (some centres unmarked),16.3%
6,O=C(NNC(=O)c1ccc2c(=O)n3c(nc2c1)CCC3)c1cccc(Cl)c1,6.31%
7,NC(=S)Nc1ccc(S(=O)(=O)c2ccc(NC(N)=S)cc2)cc1,15.6%
8,COc1cccc(-n2cnnc2SCC(=O)NC2CC2)c1,11%
9,COc1ccc(/C=N\Nc2ncc(F)c(N3CCOCC3)n2)cc1OC,0.991%
10,O=C(NC1CCCC1)C(c1cccnc1)N(C(=O)c1ccco1)c1ccc(F)cc1 (centres unmarked),16.7%
11,COc1cccc(Nc2nc3ccc(OC)cc3s2)c1,8.62%
12,COc1ccc(/C=C/C(=O)Nc2ccc(S(=O)(=O)N3CCOCC3)cc2)c(OC)c1,15%
13,CN(Cc1ccc(O)cc1)C1CCCCC1,-12.4%
14,O=S(=O)(c1ccc2c(c1)OCCO2)N1CCN(c2cccc(Cl)c2)CC1,9.98%
15,NC(=S)c1ccc(C(N)=S)o1,6.81%
16,CC(=O)NC(CC(=O)OC(C)C(=O)Nc1ccc(Cl)cn1)c1ccccc1 (centres unmarked),10.4%
17,Cc1ccc(Cl)cc1N1CCN(C(=O)C2CCC(=O)N2C(C)C)CC1 (centres unmarked),-0.413%
18,CCOC(=O)CSc1nc2ccccc2c(=O)n1C,14.3%
19,CCOc1ccccc1OC(C)C(=O)Nc1ccc(S(=O)(=O)N2CCCC2)cc1 (centres unmarked),9.07%
